Experimental data published in the supplement of paper PMC12217912.
The list shows a part of the results. The full chains were built here from the parent and the listed change. Values near 0.05 are background.

B1: TEV protease; numbered along this chain (parent)
chain: MGESLFKGPRDYNPISSSICHLTNESDGHTTSLYGIGFGPFIITNKHLFRRNNGTLVVQSLHGVFKVKDTTTLQQHLVDGRDMIIIRMPKDFPPFPQKLKFREPQREERICLVTTNFQTKSMSSMVSDTSCTFPSGDGIFWKHWIQTKDGQCGSPLVSTRDGFIVGIHSASNFTNTNNYFTSVPKNFMELLTNQEAQQWVSGWRLNADSVLWGGHKVFMVKPEEPFQPVKEATQL

Variants of: B1
Experiment: raw area under fraction-flipped curve 0-4 h after induction (AUC4h, not background-subtracted), DNA-recorder readout of cleavage of the substrate (dimensionless); higher = more cleavage of the substrate by the protease variant
Conditions: temperature: 34 °C; time window: 0-4 h after rhamnose induction
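Note: Bxb1 expression induced with 0.2% (w/v) L-rhamnose at OD600 near 0.5, cultures sampled hourly, flipped fraction per protease–substrate barcode pair counted by paired-end Illumina sequencing.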

| Variant | area with substrate ENLYDQS | area with substrate ENLYEQS | area with substrate ENLYGQS | area with substrate ENLYHQS | area with substrate ENLYIQS | area with substrate ENLYKQS | area with substrate ENLYMQS | area with substrate ENLYNQS | area with substrate ENLYPQS | area with substrate ENLYRQS | area with substrate ENLYSQS | area with substrate ENLYVQS | area with substrate ENLYWQS | area with substrate ENLYYQS | area with substrate ENLYQQS | area with substrate ENLYLQS | area with substrate ENLYTQS |
| --- | --- | --- | --- | --- | --- | --- | --- | --- | --- | --- | --- | --- | --- | --- | --- | --- | --- |
| D69E | 0.0597 | 0.069 | 0.0644 | 0.065 | 0.109 | 0.0221 | 0.078 | 0.052 | 0.0592 | 0.0472 | 0.0531 | 0.0879 | 0.0843 | 0.0902 |  |  |  |
| S127K | 0.0594 | 0.0561 | 0.0715 | 0.0512 | 0.159 | 0.0569 | 0.0923 | 0.0626 | 0.0928 |  |  | 0.102 | 0.062 |  | 0.0589 |  |  |
| I43N | 0.0567 | 0.048 | 0.0406 | 0.0323 |  | 0.0428 | 0.0447 | 0.0465 | 0.0424 |  | 0.0468 | 0.0356 | 0.0457 |  |  | 0.0404 | 0.0514 |
| I43Q | 0.0551 | 0.0408 | 0.0471 | 0.0448 | 0.0484 | 0.0429 | 0.0438 | 0.0559 | 0.0558 | 0.0317 |  | 0.0495 | 0.0472 | 0.0425 | 0.046 |  | 0.0431 |
| S26N | 0.0622 | 0.0632 | 0.06 | 0.0721 |  | 0.0465 | 0.0708 | 0.0649 | 0.0456 | 0.0741 |  | 0.0808 | 0.0781 | 0.0578 |  | 0.0476 |  |
| S26P | 0.0538 | 0.0602 | 0.0581 | 0.054 | 0.064 | 0.0575 | 0.0532 | 0.0419 | 0.0573 | 0.0827 |  | 0.0764 |  | 0.0522 | 0.0562 | 0.0353 | 0.0517 |
| W141P | 0.0745 | 0.049 | 0.0512 | 0.112 | 0.0385 | 0.0645 | 0.0544 | 0.0589 | 0.0405 | 0.0471 | 0.0448 |  | 0.0577 | 0.0612 | 0.0553 |  | 0.052 |
| W141A | 0.0553 | 0.0648 |  | 0.0583 |  |  | 0.0445 | 0.0456 | 0.0481 |  | 0.0618 | 0.0548 | 0.06 | 0.0524 |  |  | 0.0408 |
| D27W | 0.0591 | 0.0642 | 0.0552 | 0.0915 |  | 0.0497 | 0.0832 | 0.0487 | 0.0741 | 0.0575 | 0.0648 | 0.0475 | 0.0629 | 0.0595 | 0.0561 | 0.0849 | 0.0571 |
| I36T | 0.0616 | 0.0699 | 0.0677 | 0.0664 | 0.0961 | 0.126 | 0.0796 | 0.0624 | 0.0773 |  |  | 0.088 | 0.0687 | 0.0642 | 0.0581 |  | 0.0789 |
| F133W | 0.0666 | 0.0616 | 0.0747 | 0.0748 | 0.108 | 0.0628 | 0.08 | 0.064 | 0.0542 | 0.048 | 0.0807 | 0.0922 | 0.084 | 0.056 | 0.0667 |  | 0.0726 |
| S201R | 0.066 | 0.0788 | 0.072 | 0.0833 | 0.109 | 0.0546 | 0.107 | 0.0579 |  | 0.0801 | 0.0762 | 0.0988 |  | 0.0588 | 0.0687 |  |  |
| T192M | 0.0673 | 0.0659 | 0.0681 | 0.0702 | 0.11 | 0.0791 | 0.0853 | 0.0725 | 0.0753 | 0.0446 | 0.0652 | 0.0821 | 0.0976 | 0.0854 | 0.0573 |  | 0.0873 |
| K66L | 0.0589 | 0.0615 | 0.0338 | 0.0626 | 0.163 | 0.0781 |  | 0.0662 | 0.053 | 0.0519 | 0.0672 | 0.128 | 0.0778 | 0.0693 | 0.0616 |  | 0.0847 |
| D82K | 0.0646 | 0.0691 | 0.0642 | 0.059 |  | 0.0642 | 0.0572 | 0.0724 | 0.0609 | 0.0648 |  |  |  |  |  |  |  |
| G39I | 0.0413 | 0.0409 |  | 0.0402 | 0.0501 | 0.0276 | 0.0418 | 0.0367 | 0.0449 | 0.0503 | 0.0532 | 0.0383 | 0.0296 | 0.0393 |  |  | 0.0645 |
| N116S | 0.0494 | 0.0859 |  | 0.0624 |  |  | 0.0793 |  |  | 0.047 | 0.0814 |  |  |  |  |  | 0.0793 |
| T30Y | 0.0733 | 0.0646 | 0.0748 | 0.0533 | 0.125 | 0.0517 | 0.0734 | 0.0697 | 0.0733 | 0.0644 | 0.0727 | 0.11 | 0.0952 | 0.0476 |  | 0.074 | 0.0868 |
| W203N | 0.0442 |  | 0.0693 | 0.0606 |  | 0.0613 | 0.0569 | 0.0562 |  | 0.0595 |  | 0.0638 | 0.0668 |  |  | 0.0575 | 0.0405 |
| V165T | 0.0537 | 0.0544 | 0.0045 | 0.0564 | 0.0748 | 0.0288 | 0.0743 |  | 0.0647 |  | 0.0529 | 0.107 | 0.0622 |  |  |  |  |
| F180N | 0.0575 | 0.0613 | 0.0579 | 0.0547 | 0.0587 | 0.0483 | 0.0449 | 0.0567 | 0.0486 | 0.0708 |  |  | 0.0446 |  |  |  |  |
| V78W | 0.0649 | 0.0615 | 0.0715 | 0.0496 |  | 0.0749 | 0.0649 | 0.0578 | 0.0722 | 0.0612 | 0.0559 |  | 0.0634 | 0.0554 | 0.0635 | 0.0731 | 0.0648 |
| L205G | 0.0645 | 0.0636 | 0.0571 | 0.0597 | 0.0677 | 0.0284 |  | 0.0614 | 0.0705 | 0.0706 | 0.068 | 0.0631 |  | 0.0779 | 0.0639 | 0.0665 | 0.0479 |
| R106A | 0.0765 | 0.0441 |  | 0.066 | 0.0991 | 0.0528 | 0.1 | 0.0765 | 0.0628 | 0.0505 | 0.0853 | 0.0848 | 0.069 |  |  |  |  |
| T132I | 0.0656 | 0.0653 | 0.0523 | 0.0686 | 0.137 | 0.126 | 0.0818 | 0.0585 | 0.0666 | 0.0609 | 0.0638 |  |  |  | 0.0609 |  | 0.0747 |
| I145K | 0.0562 | 0.0588 | 0.0691 | 0.0555 | 0.0532 | 0.0537 | 0.0565 | 0.0514 | 0.0628 |  | 0.0476 | 0.0615 |  | 0.0457 | 0.051 |  |  |
